Out of some 310,000 compounds screened, about 14,000 (4.5%) showed an effect of 50% or more. The effect is printed as a negative number. This is one part of the list.
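Further: peak tail current of the secondary pulse compared with the same well before compound.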

For the assay, the target named is human ether-à-go-go-related gene (hERG) potassium channel (human, UniProt Q12809). Kind of assay: primary screen, population patch clamp on CHO cells stably expressing hERG.
Chain of human ether-à-go-go-related gene (hERG) potassium channel (Q12809 whole entry, looked up): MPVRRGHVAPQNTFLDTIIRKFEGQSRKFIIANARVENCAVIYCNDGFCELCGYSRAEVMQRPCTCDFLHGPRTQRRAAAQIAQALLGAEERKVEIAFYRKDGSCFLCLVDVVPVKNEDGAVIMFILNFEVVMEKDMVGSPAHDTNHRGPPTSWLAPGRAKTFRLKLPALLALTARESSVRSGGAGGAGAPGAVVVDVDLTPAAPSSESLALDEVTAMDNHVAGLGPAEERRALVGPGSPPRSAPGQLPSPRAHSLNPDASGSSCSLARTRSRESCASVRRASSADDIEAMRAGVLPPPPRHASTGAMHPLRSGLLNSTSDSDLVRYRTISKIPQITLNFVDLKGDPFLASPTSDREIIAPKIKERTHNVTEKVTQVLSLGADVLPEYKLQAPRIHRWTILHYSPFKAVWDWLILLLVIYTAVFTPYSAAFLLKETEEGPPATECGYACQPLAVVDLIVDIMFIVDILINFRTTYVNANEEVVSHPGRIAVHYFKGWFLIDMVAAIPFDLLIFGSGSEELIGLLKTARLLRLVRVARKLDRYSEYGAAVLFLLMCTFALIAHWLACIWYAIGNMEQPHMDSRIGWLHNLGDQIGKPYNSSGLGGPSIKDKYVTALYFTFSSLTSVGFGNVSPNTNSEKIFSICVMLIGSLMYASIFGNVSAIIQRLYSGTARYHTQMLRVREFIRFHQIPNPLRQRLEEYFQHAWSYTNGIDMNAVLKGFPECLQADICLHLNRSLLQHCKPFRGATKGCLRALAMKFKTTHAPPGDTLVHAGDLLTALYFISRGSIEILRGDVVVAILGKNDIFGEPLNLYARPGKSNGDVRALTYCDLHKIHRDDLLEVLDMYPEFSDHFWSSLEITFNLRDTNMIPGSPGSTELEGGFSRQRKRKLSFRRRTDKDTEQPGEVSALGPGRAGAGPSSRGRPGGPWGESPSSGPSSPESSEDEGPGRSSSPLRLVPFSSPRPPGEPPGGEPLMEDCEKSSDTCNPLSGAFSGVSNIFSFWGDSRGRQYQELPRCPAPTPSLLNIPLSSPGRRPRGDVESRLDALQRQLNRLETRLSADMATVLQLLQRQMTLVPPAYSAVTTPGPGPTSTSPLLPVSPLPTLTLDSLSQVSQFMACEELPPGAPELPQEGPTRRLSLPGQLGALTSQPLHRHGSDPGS
In the case of `COc1ccc(NC(=S)NC2CCCC2)c(OC)c1`, the “hERG current change (%, negative = inhibition) at 10uM” value was determined as 11%.
The figure for `Cc1[nH]n(-c2ccccc2)c(=O)c1CCOC(=O)c1cccc(C(F)(F)F)c1` is -0.969%; for `CCOC(=O)Cn1c(=NC(=O)CN2C(=O)CCC2=O)sc2cc(S(N)(=O)=O)ccc21` it is 18.8%.
As for `CC1CCN(C(=O)CSc2nnc(-c3cccnc3)o2)CC1`, the “hERG current change (%, negative = inhibition) at 10uM” value turned out to be 4.89%.
With `Cc1ccc(S(=O)(=O)N2CCN(C(=O)COC(=O)CSc3ccccc3)CC2)c(C)c1` the figure was 12.9%; with `COC(=O)c1ccc(NC(=O)CCN2C(=O)NC(C)(C)C2=O)cc1`, 11.5%.
With `O=C(CCC(=O)N1CCOCC1)NCCc1ccccc1` the figure was 20.1%.
With `COc1cccc(/C=N/NC(=O)C(=O)N2CCCC2)c1O`, the “hERG current change (%, negative = inhibition) at 10uM” value is -5.06%.
With `COc1cccc(-c2nc(CS(=O)(=O)CC(=O)N3CCCCC3)c(C)o2)c1` the figure was 2.92%.
Regarding `O=C(CN1CCCc2ccccc21)N/N=C/c1c(O)ccc2ccccc12`, the “hERG current change (%, negative = inhibition) at 10uM” value was found to be 0.442%.
On to `Cc1ccc2c(c1)C(c1ccccc1)N(C(=O)c1ccccc1[N+](=O)[O-])CC(=O)N2` (stereo not drawn), for which the “hERG current change (%, negative = inhibition) at 10uM” value is listed as -40.5%.
The figure for `Cc1cc(C)cc(C(=O)NC(CC(N)=O)c2ccc(N3CCN(c4ccccc4)CC3)c([N+](=O)[O-])c2)c1` (stereo not drawn) is 13.3%; for `CCCSc1nc(-n2ncc(C#N)c2N)c2c3c(sc2n1)CCC(C)C3` (stereo not drawn) it is 5.45%; for `CCN(CC)C(=O)CNC(=O)c1nn(-c2ccc(OC)c(Cl)c2)c(=O)c2ccccc12` it is 3.83%.
With `COc1ccc(C2OC(=O)CC2C(=O)NCc2ccc(F)cc2)cc1OC` (stereo not drawn) the figure was -15.7%; with `CC(C)(C)OC(=O)NCCCCC1=CC2=CC(=O)C(C)(O)C(=O)C2=CO1` (stereo not drawn), 2.97%.
In the case of `Cc1ccc(NCC(=O)N/N=C\c2ccc([N+](=O)[O-])o2)cc1`, the “hERG current change (%, negative = inhibition) at 10uM” value is reported as -35%.
The figure for `O=C(N/N=C/c1ccc(-c2ccccc2[N+](=O)[O-])o1)[C@H]1C[C@@H]1c1ccccc1` is 7.36%; for `Cc1cccc(NC(=O)CSc2nc(=O)n3ccccc3n2)c1C` it is -0.594%.
As to `Cc1c(NC(=O)c2ccc3c(c2)OCO3)cccc1-c1nc2ncccc2o1`, the “hERG current change (%, negative = inhibition) at 10uM” value came out at 10.3%.
With `CC(=O)N1C(Nc2ccc(Cl)cc2)CCN1c1ccccc1` (stereo not drawn) the figure was 9.96%; with `Nc1nc(SCCN2C(=O)c3ccccc3C2=O)n[nH]1`, 11.6%; with `CCC(c1ccccc1)c1nnc(NC(=O)c2ccco2)s1` (stereo not drawn), 14.7%.
With `Cc1ccc(-c2ccc(SCC(=O)N3CCCc4ccccc43)nn2)cc1` the figure was -15.7%; with `C=CCn1cnc2c(nnn2-c2ccc(C)c(C)c2)c1=O`, -3.77%.
With `N/C(=N\OC(=O)c1ccc(Cl)c([N+](=O)[O-])c1)c1ccccc1` the figure was 22%; with `O=C(NC1CCCCC1)C1CC(=O)N(CCc2ccccc2)C1` (stereo not drawn), -7.01%.
`CCOC(=O)c1ccc2c(c1)nc(-c1ccc(F)cc1)c1nccn12`: the “hERG current change (%, negative = inhibition) at 10uM” value is 5.55%.
With `C/C1=C\[C@@H](C)C/C=C/[C@H]2[C@@H]3O[C@]3(C)[C@@H](C)[C@H]3[C@H](Cc4c[nH]c5ccccc45)NC(=O)[C@]32C(=O)/C=C/C(=O)[C@@H]1O`, the “hERG current change (%, negative = inhibition) at 10uM” value was 7.01%.
With `CCOC(=O)c1[nH]nc(N)c1NC(=O)c1ccc(Cl)cc1Cl` the figure was 1.13%; with `COCCNC(=S)N1CCC(NC(=O)c2ccco2)CC1`, 15.7%; with `CCOc1ccc(N/C(C)=C\C(=O)c2ccc3c(c2)OCCO3)cc1`, 1.45%.
The figure for `Cc1ccc(C)c(NC2=NCC(=O)N2C2CCCCC2)c1` is -1.7%.
The figure for `CSC1=C(C#N)C(c2ccccc2C)C(C#N)=C(N)N1` (stereo not drawn) is 2.8%; for `CCCC1CCC(C(=O)n2nc(N)c3cc4ccc(OC)cc4nc32)CC1` (stereo not drawn) it is 10.3%; for `CCCc1ccc2oc(C(=O)N3CCN(c4cnccn4)CC3)c(C)c2c1` it is -46.1%.
In the case of `CCCNC(=O)c1ccc(C)c(NC(=O)C2=C(C)OCCS2)c1`, the “hERG current change (%, negative = inhibition) at 10uM” value turned out to be 3.06%.
As to `O=C1NCC(COc2cccc3ccccc23)O1` (stereo not drawn), the “hERG current change (%, negative = inhibition) at 10uM” value worked out at 13.3%.
With `Clc1ccc(-c2nnc3sc(-c4ccc(Br)o4)nn23)c(Cl)c1` the figure was 9.33%.
As for `Cc1nc(NS(=O)(=O)c2ccccc2)sc1NC(=O)Nc1ccccc1`, the “hERG current change (%, negative = inhibition) at 10uM” value stood at 28.6%.
On to `Cc1cc(C(=O)Nc2ccc3c(c2)OCCO3)co1`, for which the “hERG current change (%, negative = inhibition) at 10uM” value is listed as 7.01%.
The figure for `CC(C)CC(c1nnnn1C1CCCCC1)N1CCN(c2ncccn2)CC1` (stereo not drawn) is -19.5%.
In the case of `Cc1nn(-c2cccc(Cl)c2)nc1C(=O)O`, the “hERG current change (%, negative = inhibition) at 10uM” value is 12%.
As for `C=C1CCC[C@]2(C)C[C@H]3OC(=O)C(CN(Cc4ccc(OC)c(OC)c4)CC(C)O)[C@H]3CC12` (stereo partly drawn), the “hERG current change (%, negative = inhibition) at 10uM” value is on record as -27.3%.
With `Cc1ccc(OCc2nnc(SCC(=O)N3CCOCC3)n2C)cc1` the figure was 14.6%.
With `Cc1cnc(CNC(=O)CC2C(=O)NCCN2Cc2cccc(F)c2F)cn1` (stereo not drawn), the “hERG current change (%, negative = inhibition) at 10uM” value is 10.8%.
The figure for `Cc1cc(CNC(=O)c2cc(COc3c(F)cccc3F)on2)nn1C` is 15.7%; for `COc1ccc(NC(=O)CN(C)C(=O)c2cccc3ccccc23)cc1` it is 3.09%; for `Cn1cc(/C=C(\C#N)C(=O)Nc2ncc(Cc3ccc(Cl)cc3)s2)c2ccccc21` it is 7.07%.
With `CN1C(=O)c2ccc(NC(=O)CCS(=O)(=O)c3ccccc3)cc2C1=O` the figure was -3.01%; with `CSc1ccccc1NC(=O)CSc1nnc(COc2ccccc2)o1`, -22.9%; with `CC(=O)Nc1ccc(S(=O)(=O)NCCC(=O)NNC(=O)c2ccccc2O)cc1`, 0.372%.
With `C=CCOc1ccccc1CNc1ccc2c(c1)OCCO2.Cl` the figure was -4.5%; with `CC(C)C(=O)NNC(=O)CSc1ncnc2c1cnn2-c1ccccc1Cl`, 9.5%.
In the case of `CCOC(=O)C1CCCN(c2nc3ccccc3nc2C(C#N)C(=O)OC(C)C)C1` (stereo not drawn), the “hERG current change (%, negative = inhibition) at 10uM” value was found to be 8.39%.
The figure for `CCCCc1cc(=O)oc2c(C)c(OCC(=O)NCCN3CCOCC3)ccc12` is -82.1%; for `O=C(O)c1c(C(=O)O)c(-c2ccc(Br)cc2)n2c1CSC2` it is 15%; for `O=C(O)CCN1C(=O)C2C3C=CC(C3)C2C1=O` (stereo not drawn) it is 14.2%.
The figure for `Cc1ccc(C)c2nc3sc(C(=O)N4CCOCC4)c(N)c3cc12` is 6.64%.
For `O=C(NN1CCOCC1)c1cc(-c2ccc(Cl)c(Cl)c2)nc2ccccc12`, the “hERG current change (%, negative = inhibition) at 10uM” value is 10.8%.
The figure for `Cc1ccccc1NC(=O)N1CCNC(=O)C1CC(=O)Nc1cc(Cl)ccc1Cl` (stereo not drawn) is 9.17%; for `Cc1ccc(CNS(=O)(=O)c2ccc3c(c2)N(C)CCO3)cc1` it is 12.7%; for `CC(C)(C)OC(=O)NCCCC[C@H](NC(=O)c1nc[nH]c1C(=O)NCc1ccccc1)C(=O)OC(C)(C)C` it is -1.62%.
With `CCC1CCCCN1Cc1nc(Cc2ccccc2Cl)no1` (stereo not drawn) the figure was -10.4%; with `COc1ccc(N2CCN(S(=O)(=O)c3cc4c(cc3C)NC(=O)CO4)CC2)cc1`, 8.24%.
Turning to `O=C(CSc1nnc(-c2ccncc2)o1)Oc1ccccc1`, the “hERG current change (%, negative = inhibition) at 10uM” value worked out at 15.2%.
`CCOC(=O)N1CCN(c2c(N3CCN(c4ccccc4OC)CC3)c(=O)c2=O)CC1`: the “hERG current change (%, negative = inhibition) at 10uM” value was -5.67%.
With `Cc1nc2ccccn2c1/C(O)=C1\C(=O)C(=O)N(CCN2CCOCC2)C1c1cccs1` (stereo not drawn) the figure was -3.48%.
For the compound `CC(C)CN(C(=O)COC(=O)CSc1ccc([N+](=O)[O-])cc1)C1CCS(=O)(=O)C1` (stereo not drawn), the “hERG current change (%, negative = inhibition) at 10uM” value is reported as -48.5%.
With `CC(C)Oc1ccc(C(=O)Nc2ccccc2N2CCCC2)cc1` the figure was -14.8%.
`COc1ccc(S(=O)(=O)NC2(C(F)(F)F)N=C3SCCN3C2=O)cc1` (stereo not drawn): the “hERG current change (%, negative = inhibition) at 10uM” value is listed as 13.8%.
The figure for `CCN(CC)C(=O)c1ccc(NC(=O)c2ccc(N3CCCC3=O)cc2)cc1` is 5.47%; for `COc1cc2c(C(=O)NCCN(C)C)cn(CC(C)C)c(=O)c2cc1OC` it is 16%.
For `O=C(CCc1ccccc1)Nc1ccc(NS(=O)(=O)c2ccccc2)cc1`, the “hERG current change (%, negative = inhibition) at 10uM” value was determined as 8.43%.
The figure for `CCN(CC)C(=O)c1ccccc1NC(=O)c1ccccc1C` is 21.8%; for `Cc1ccc2oc(C(=O)NCc3ccccc3)cc(=O)c2c1` it is 11.2%.
With `O=[N+]([O-])c1cc(-n2cnnn2)c(O)c([N+](=O)[O-])c1` the figure was 21%.
The figure for `Cc1cccc(NS(=O)(=O)c2ccc3c(c2)CCC(=O)N3)c1` is 4.67%.
On to `CCCCN(C)Cc1c(C)[nH]c2ccc(Cl)cc2c1=O`, for which the “hERG current change (%, negative = inhibition) at 10uM” value was -55.3%.
In the case of `O=S(=O)(c1ccccc1)[C@@]1(c2ccc(Br)cc2)C[C@@H]2ON=C(c3ccccc3)[C@@H]2C1`, the “hERG current change (%, negative = inhibition) at 10uM” value is on record as -19.6%.
`CCOC(=O)C1CCN(C(=O)Cc2cccc3ccccc23)CC1`: the “hERG current change (%, negative = inhibition) at 10uM” value is listed as -2.43%.
In the case of `Cc1noc(C)c1S(=O)(=O)N1CCCCC1`, the “hERG current change (%, negative = inhibition) at 10uM” value was found to be 10.1%.
The figure for `CCCOc1ccc(S(=O)(=O)n2cc(F)c(=O)[nH]c2=O)cc1` is 15.4%; for `COc1ccc(CC(=O)OCC(=O)c2c(N)n(C)c(=O)n(C)c2=O)cc1OC` it is -8.96%.
For the compound `CCS(=O)(=O)N1CCC(C(=O)NCc2ccc3c(c2)OCO3)CC1`, the “hERG current change (%, negative = inhibition) at 10uM” value is on record as -5.3%.
On to `CCN(CC)CCn1c2ccc(F)cc2c2nc(C)sc21.Cl`, for which the “hERG current change (%, negative = inhibition) at 10uM” value is on record as -54.3%.
`CC1CCC(C(C)C)C(OC(=O)Cn2c(-c3ccc(Br)cc3)[n+](C)c3ccccc32)C1.[Cl-]` (stereo not drawn): the “hERG current change (%, negative = inhibition) at 10uM” value is -78.3%.

The values are drawn from PMC4336329 (PLoS ONE, 2015).
